Hit rate of the full screen: of about 340,000 compounds, about 6,900 (2%) were called active. Cut-off read from the data, not from the text of the source: active = inhibition above about 30%; inactive = below that, where a call was filed. This is a selection; strong and weak results do not stand in their true shares. The source gives no active or inactive call for entries shown without one.

As a reminder, the inhibition is the drop in the measured response relative to a control, in per cent.

UniProt P14416, sequence (P14416 whole entry, looked up): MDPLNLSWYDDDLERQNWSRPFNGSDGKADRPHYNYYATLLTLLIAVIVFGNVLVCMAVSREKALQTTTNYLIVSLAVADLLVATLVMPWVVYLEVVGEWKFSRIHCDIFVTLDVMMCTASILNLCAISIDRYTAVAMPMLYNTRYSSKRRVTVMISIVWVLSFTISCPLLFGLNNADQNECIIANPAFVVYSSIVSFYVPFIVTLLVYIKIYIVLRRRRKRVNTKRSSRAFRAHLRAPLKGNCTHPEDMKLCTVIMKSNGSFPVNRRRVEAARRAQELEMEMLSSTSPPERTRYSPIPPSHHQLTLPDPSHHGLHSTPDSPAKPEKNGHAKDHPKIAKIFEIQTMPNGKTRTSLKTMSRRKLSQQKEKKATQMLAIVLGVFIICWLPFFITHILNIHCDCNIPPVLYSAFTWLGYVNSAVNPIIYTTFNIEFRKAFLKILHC

The assay has as its target D(2) dopamine receptor (Homo sapiens) (UniProt P14416). Nature of the assay: HTS Assay for Allosteric Antagonists of the Human D2 Dopamine Receptor: Primary Screen for Antagonists. Note: 0% is about no effect. The settings on record: HEK293 TREx D2 cells, calcium flux, dopamine EC80; at 10 µM; stronger effect = higher value. Summed up:
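Measurement of antagonist activity uses fluorescent calcium dye in inducible HEK293 T-REx D2 cells: 10 s baseline, compound addition with 180 s read, EC80 dopamine addition with a further 180 s read.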
On the technique in general: Calcium flux is commonly read through the fluorescence of an indicator in the cells.
For `O=c1oc2c(CN3CCCC3)c(O)ccc2cc1-c1ccccc1`, the inhibition worked out at 0.726%.
As for `CCOCCCNC(=O)c1c(NC(=O)c2cc(=O)c3ccccc3o2)sc2c1CCC2`, the inhibition turned out to be 2.73%.
The same measure for `COc1ccccc1N1CCN(C(=O)Nc2cn(CC(C)C)c(=O)c3ccccc23)CC1`: 14.9%.
Consider `CC(C)C(=O)Nc1cccc(C(=O)Nc2nnc(CC(C)(C)C)s2)c1`, for which the inhibition was -3.01%.
The same measure for `Cc1ccc(CCNC(=O)c2c(C)oc3nc(C)nc(N4CCOCC4)c23)cc1`: -3.52%; for `CCN(CCCNC(=O)c1cc(Nc2ccc(OC)cc2OC)nc2ccccc12)c1cccc(C)c1`: 23%.
Under `Cn1cc(-c2cc3n(n2)CCC(=O)N3CC(=O)NCc2ccc(Cl)cc2)c2ccccc21` stands -0.309%; under `O=C(COc1ccccc1[N+](=O)[O-])N1CCC(c2nc3ccccc3o2)CC1`, 2.52%; under `Cc1c(CC(=O)NCCc2ccccc2F)c(=O)oc2cc(O)c(Cl)cc12`, 2.41%.
The same measure for `Cc1ccc(-n2ncc3c(N(CC(C)C)CC(C)C)ncnc32)c(C)c1`: -6.26%; for `Cc1ccc(NC(=O)c2c(C)oc3ccc(O)c(CN4CCCCCC4)c23)cc1`: 5.57%.
On to `CC(C)S(=O)(=O)c1oc(-c2cccs2)nc1S(=O)(=O)c1ccc(F)cc1`, for which the inhibition is -9.44%.
`Nc1nonc1C(=O)NCCNCc1cccc(Cl)c1Cl`: the inhibition was -3.16%.
`O=C1CC(c2cccc(O)c2)c2cc3c(cc2N1)OCO3` (configuration not stated): the inhibition is 17.4%.
Regarding `Cc1ccc(OCCn2c(-c3ccc(Br)cc3)nc3ccccc3c2=O)cc1C`, the inhibition was -10.5%.
Under `COc1ccc(NC(=O)Cn2c(=O)n(Cc3ccccc3Cl)c(=O)c3cc(OC)c(OC)cc32)cc1OC` stands -0.32%.
For the compound `CCCCN(CC)CCCNC(=O)C1CCCN(c2ncnc3c2nc2n3CCCCC2)C1` (configuration not stated), the inhibition was -2.57%.
On to `COc1ccc(-c2onc(C)c2C)cc1S(=O)(=O)N1CCN(c2ccc(Cl)cc2)CC1`, for which the inhibition amounted to 7.5%.
Under `Cc1cccc(NC(=O)CCCN2C(=O)c3ccccc3C2=O)n1` stands active: 33.9%; under `O=C(CCN1CCN(c2ccccc2)CC1)Nc1ccccc1`, active: 53.5%.
Under `CCc1ccc(-c2nc(CS(=O)CC(=O)NCCCN3CCC(C)CC3)c(C)o2)cc1` (configuration not stated) stands active: 30.3%; under `CC(CNC(=O)C1CCN(S(=O)(=O)c2ccc3c(ccn3C)c2)CC1)c1ccccc1` (configuration not stated), -19.2%; under `CC(C)OC(=O)c1c(NC(=O)COc2cccc(Br)c2)sc2c1CCCC2`, -2.4%.
The same measure for `O=C(CSc1nc2c([nH]c3ccccc32)c(=O)n1-c1ccccc1)N1CCOCC1`: 5.1%; for `Cc1ccc(-c2nnc(Nc3ccc(OCC(N)=O)cc3)c3ccccc23)cc1S(=O)(=O)N(C)C`: -12.7%.
`O=C(C1CCN(S(=O)(=O)N2CCOCC2)CC1)N1CCc2ccccc21`: the inhibition is active: 35.6%.
With `CC(C)(C)c1ccc(C2=NC(C)(C)N(CC(=O)Nc3ccc(F)c(F)c3)C2=O)cc1`, the inhibition is -3.3%.
Consider `COc1ccc(S(=O)(=O)N2CCC3(CC2)CC(=O)c2ccccc2O3)cc1OC`, for which the inhibition was active: 45.2%.
On to `N=c1sccn1CC(=O)NCCc1ccc(Cl)cc1Cl`, for which the inhibition was active: 39%.
As to `COc1cccc2c1Oc1ncccc1N(C(=O)CCC(=O)NC(C)C)C2`, the inhibition came out at 4.49%.
Regarding `CCc1c(C)sc2c1CCN(C(=O)Nc1cc(Cl)c(OC)cc1OC)C2c1ccccc1` (configuration not stated), the inhibition is -15.1%.
Under `CCC(=O)N1CCc2cc(CNS(=O)(=O)c3ccc(NC(=O)CC(C)C)cc3)ccc21` stands 16.5%; under `CCC(=O)N1CCc2cc(Br)cc(S(=O)(=O)CCC(=O)Nc3ccc(C)c(F)c3)c21`, -1.12%; under `O=S(=O)(NCC(c1cccnc1)N1CCN(Cc2ccccc2)CC1)c1cc(F)ccc1F` (configuration not stated), active: 43.2%.
For the compound `CCn1c(C)c(C)c2cc(C(=O)NCc3ccc(OC)cc3OC)ccc21`, the inhibition was -2.42%.
Turning to `CCN(CC)S(=O)(=O)c1ccc(NC(=O)c2c(C)oc3ncnc(N4CCOCC4)c23)cc1`, the inhibition stood at 4.8%.
In the case of `CCOc1ccccc1NC(=O)c1c(NCc2cccs2)sc2c1CCCCC2`, the inhibition was -2.89%.
On to `C=CCN1C(=O)/C(=C/c2ccc(OC(C)=O)c(OCC)c2[N+](=O)[O-])SC1=S`, for which the inhibition is active: 30.3%.
Under `Cc1ccccc1NC1=NC(=S)N(CC(N)=O)C12CCOC(C)(C)C2` (configuration not stated) stands active: 44.4%; under `CCOc1ccc(NC(=O)c2c(NC(=O)c3ccccc3F)sc3c2CCC3)cc1`, -12.8%.
Turning to `CCOc1cc(/C=C(\C#N)C(=O)Nc2ccc(C)cc2)ccc1OCc1cc(=O)n2nc(CC)sc2n1`, the inhibition is 0.228%.
Under `Cc1ccc(NS(=O)(=O)c2ccc3c(c2)CCC(=O)N3)cc1` stands active: 64.5%; under `CC(=O)Nc1ccc(NC(=O)c2cc3sccc3n2Cc2ccc(Cl)cc2)cc1`, 18.6%.
The same measure for `COc1cc(NC(=O)Cn2cnc3c2c(=O)n(C)c(=O)n3C)c(OC)cc1Cl`: 12.5%.
Regarding `CCOC(=O)c1c(NC(=O)/C(C#N)=C/c2ccccc2)sc2c1CCC2`, the inhibition is 7.99%.
Turning to `Cc1cc(C)cc(NC(=O)Nc2ccccc2OCc2cc(=O)n3ccccc3n2)c1`, the inhibition is -22.4%.
Turning to `Cc1ccccc1CNC(=O)c1ccc(CSc2nc3cccnc3n2Cc2ccccc2)cc1`, the inhibition is -1.72%.
As for `CCc1c(C)c2ccc(O)c(CN3CCN(c4ccc(OC)cc4)CC3)c2oc1=O`, the inhibition was 9.13%.
Under `CCc1ccc(-n2c(SCc3ccccc3C)nc3[nH]ncc3c2=O)cc1` stands 1.06%; under `Cc1ccc(-c2nc(CS(=O)(=O)CC(=O)NCc3ccc(Cl)cc3)c(C)o2)cc1`, 10.9%; under `COC(=O)c1ccc(Cn2c(SCc3ccccc3)nc3ccncc32)cc1`, 17.7%.
Consider `CCc1ccc(-n2nc(C)c3c(C(=O)Nc4cc(C)c(Cl)cc4OC)cc(C)nc32)cc1`, for which the inhibition is -2.82%.
`CCCN(C(=O)COc1cc(=O)n(CC)c2ccccc12)c1ccc(C(C)C)cc1`: the inhibition was -16.3%.
On to `CC(C)c1ccc(NC(=O)CCS(=O)(=O)c2cccc3nonc23)cc1`, for which the inhibition is 2.96%.
`CCc1ccc(-c2nn(CC(=O)NCc3ccccc3)c3c2cnc2ccc(C)cc23)cc1`: the inhibition came out at 4.91%.
Under `O=C(CN1CCSc2ccccc21)N1CCCCC1` stands -11.2%; under `Cc1ccc(CCNC(=O)c2ccc(CNS(=O)(=O)c3ccccc3)cc2)cc1`, 15.9%; under `Cc1ccc(CCNC(=O)c2cc(C)nc3c2c(C)nn3-c2ccc(C)cc2)cc1`, -25.1%.
The same measure for `O=C(Nc1ccc(C(F)(F)F)cc1)C1CCN(c2cnccn2)CC1`: -6.21%; for `COc1cccc(Cn2c(SCC(=O)N(C)c3ccccc3)nc3ccccc32)c1`: 2.22%; for `COc1ccccc1N1CCN(CCc2n[nH]c(=S)n2-c2ccccc2)CC1`: active: 51.6%.
Consider `Cc1ccc(N/C(N)=N/c2nc(C)cc(N3CCCCC3)n2)c(C)c1`, for which the inhibition is active: 35.3%.
Take `COc1cccc2cc(-c3csc(-c4ccc(Cl)cc4)n3)c(=O)oc12`: the inhibition is -4.85%.
`CCOC(=O)Cn1c(=O)n(-c2ccccc2OC)c2nc(-c3ccccc3F)nc(C(N)=O)c21`: the inhibition stood at 3.4%.
The same measure for `COc1ccc(CCNC(=O)c2nc(SCc3ccc(C)cc3)ncc2Cl)cc1OC`: -0.305%.
Turning to `CCCNC(=O)c1cnc2sc(N3CCCCCC3)nn2c1=O`, the inhibition was found to be 2.95%.
Regarding `CCOC(=O)c1c(NC(=O)c2cc3nc(-c4ccccc4)cc(C(F)(F)F)n3n2)sc2c1CCC(C)C2` (configuration not stated), the inhibition amounted to 16.9%.
As to `Cc1cc(C(=O)Nc2cccc(F)c2)c2c(C)nn(-c3cccc(Cl)c3C)c2n1`, the inhibition was -4.73%.
As for `CCOc1ccc(C(=O)Nc2ccccc2OCc2cc(=O)n3ccccc3n2)cc1`, the inhibition is -6.37%.
As for `Cc1c(C(=O)N/N=C/c2ccoc2)cccc1[N+](=O)[O-]`, the inhibition is active: 67.4%.
For `COc1ccc(Cc2nc3ccc(C(=O)NCCCN4CCN(C)CC4)cc3o2)cc1`, the inhibition amounted to 23.9%.
For `Cc1ccccc1-c1nc(SCC(=O)NCC2CCCO2)c2c(=O)n(C)c(=O)n(C)c2n1` (configuration not stated), the inhibition is -5.15%.
Regarding `COc1ccc(N2CCN(C(=O)c3sc4nc5n(c(=O)c4c3C)CCC5)CC2)cc1`, the inhibition is -9.55%.
For the compound `COCCNC(=O)c1ccc2c(=O)n(CCOC)c(SCC(=O)c3c[nH]c4ccccc34)nc2c1`, the inhibition is 5.04%.
Regarding `Cc1nc2cc(NC(=O)c3cccc(S(C)(=O)=O)c3)ccc2o1`, the inhibition was active: 33.4%.
Take `Cc1cccc(CCNC(=O)CCc2c(C)nc3ncnn3c2C)c1`: the inhibition was -14.8%.
Take `COc1cccc(CN2C(=O)C3(SCC(=O)N3c3ccc(C(C)C)cc3)c3ccccc32)c1` (configuration not stated): the inhibition is -4.46%.
With `NC(=O)CSc1nnnn1-c1cccc(O)c1`, the inhibition turned out to be 0.184%.
In the case of `CCc1cccc(NC(=O)c2oc3ccc4c(c3c2C)C(=O)CC(C)(C)O4)c1`, the inhibition was 15.3%.
Turning to `Cn1c(SCc2ccccc2Cl)nc2c([nH]c3ccccc32)c1=O`, the inhibition is -8.55%.
Turning to `Cc1ccc(C(=O)NC(=S)Nc2ccc3[nH]c(=O)[nH]c3c2)cc1`, the inhibition is active: 46%.
Take `CCOc1ccc(NS(=O)(=O)c2ccc3[nH]cc(C(=O)N4CCCCCC4)c(=O)c3c2)cc1`: the inhibition was found to be 8.04%.
The same measure for `CCOC(=O)c1ccc(N2C(=O)Cc3cc(OCC)c(OCC)cc3C2c2ccccc2)cc1` (configuration not stated): 4.49%; for `O=C(c1ccc2c(c1)OCCO2)N(Cc1cccnc1)c1nc2c(F)cc(F)cc2s1`: -14.2%; for `O=C(Nc1cccc(F)c1)NC1CCN(Cc2ccccc2)CC1`: active: 88.6%.
As for `COC(=O)c1ccc(Cn2nc(-c3ccc(C)cc3)ccc2=O)cc1`, the inhibition is -6.06%.
The same measure for `O=C(COc1ccc(F)cc1)Nc1ccccc1OCc1cc(=O)n2ccccc2n1`: -1.87%; for `O=C(c1ccco1)N1CCN(CC(O)COc2ccc3oc4ccccc4c3c2)CC1` (configuration not stated): active: 39.9%.
On to `CCOC(=O)C1CCCN(C/C=C/c2ccccc2)C1` (configuration not stated), for which the inhibition was active: 30.5%.
Under `CCC1CCc2nc3sc(C(=O)Nc4cccc(C(F)(F)F)c4)c(N)c3cc2C1` (configuration not stated) stands -1.92%; under `CCc1nn2c(=O)cc(COC(=O)c3ccc(NC(=O)C4CCCCC4)cc3)nc2s1`, 0.197%.
The same measure for `COc1ccc(-c2noc(-c3ccc(NC4CCCCC4)c([N+](=O)[O-])c3)n2)cc1`: 13.4%; for `OC(CN1CCN(c2ccccc2)CC1)c1c[nH]c2ccccc12` (configuration not stated): active: 54.2%.
As for `CCCc1cc(=O)oc2cc(C)c3c(C(C)(C)C)coc3c12`, the inhibition was -0.972%.
The same measure for `COc1ccc(S(=O)(=O)Nc2cc3c(cc2N2CCOCC2)n(C)c(=O)n3C)cc1`: 7.98%; for `O=C(CCn1c(=O)c2cccn2c2cccnc21)NCc1ccccc1F`: 19.1%; for `COc1cccc(NC(=O)c2ccc3[nH]c(C)cc(=O)c3c2)c1`: 3.49%.

These data come from PubChem BioAssay AID485344 (National Center for Advancing Translational Sciences (NCATS), 2010).
